# Measurements as given in the BET-seq Pho4 binding data (Le et al. 2018).
# The other results are listed elsewhere or left out. Values were computed here from the reads of four pooled replicates and scatter widely.
# Molecular target: T1, Pho4 (S. cerevisiae) (UniProt P07270)
# T1 sequence: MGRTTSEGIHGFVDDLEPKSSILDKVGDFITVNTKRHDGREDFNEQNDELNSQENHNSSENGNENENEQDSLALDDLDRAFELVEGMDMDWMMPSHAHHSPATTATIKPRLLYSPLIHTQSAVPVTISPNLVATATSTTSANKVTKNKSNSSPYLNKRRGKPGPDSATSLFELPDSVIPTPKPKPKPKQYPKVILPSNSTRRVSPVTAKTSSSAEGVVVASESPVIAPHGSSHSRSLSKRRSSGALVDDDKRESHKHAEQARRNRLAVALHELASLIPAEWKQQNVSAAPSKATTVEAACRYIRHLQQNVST
# Experiment: relative binding free energy (BET-seq); higher = weaker binding
# Conditions: reference: library average
row,Sequence,relative binding free energy
1,TGACGCACGTGTGCGG,-0.06 kcal/mol
2,CGTTTCACGTGAGGCT,0.4 kcal/mol
3,AGGTCCACGTGGGATA,-0.04 kcal/mol
4,GAAAGCACGTGTGGAG,-0.08 kcal/mol
5,GTAAACACGTGCGGTG,0 kcal/mol
6,TGAGTCACGTGTAGGC,0.14 kcal/mol
7,GATAACACGTGTTGTG,0 kcal/mol
8,TATACCACGTGGTTGA,-0.05 kcal/mol
9,GTTTACACGTGAAGCT,0.3 kcal/mol
10,GGTTACACGTGGTTAC,0.11 kcal/mol
11,GTGTGCACGTGCTTTA,-0.17 kcal/mol
12,GTATCCACGTGTTGTG,0.02 kcal/mol
13,TGTGGCACGTGCGATT,-0.11 kcal/mol
14,CAGGGCACGTGGCGGT,-0.2 kcal/mol
15,AAGTGCACGTGAAGGG,0.14 kcal/mol
16,TAAGACACGTGGGTAG,-0.11 kcal/mol
17,GAGAACACGTGGCTGG,0.13 kcal/mol
18,GGACACACGTGTGAGG,0.07 kcal/mol
19,TAACGCACGTGTTGTG,-0.17 kcal/mol
20,TTCGCCACGTGGGGGC,-0.17 kcal/mol
21,CGTTTCACGTGGGGTA,0.19 kcal/mol
22,TGTTTCACGTGCTGTG,0.2 kcal/mol
23,AGGGGCACGTGGCAAG,-0.19 kcal/mol
24,GTTGACACGTGACGAG,0.24 kcal/mol
25,AGGGTCACGTGAGTTG,0.37 kcal/mol
26,AAGGACACGTGGAGTT,-0.07 kcal/mol

row,Sequence,relative binding free energy
1,TGGGTCACGTGCTCAT,0.14 kcal/mol
2,AGCTGCACGTGTGGTT,-0.07 kcal/mol
3,TCAAACACGTGTGTTG,0.06 kcal/mol
4,GTTTACACGTGTTACG,0.26 kcal/mol
5,GCTGTCACGTGTTGCT,0.13 kcal/mol
6,TCTTACACGTGTTATG,0.13 kcal/mol
7,TTTGGCACGTGGTACG,-0.1 kcal/mol
8,GATTGCACGTGGGTAC,-0.01 kcal/mol
9,AAAGGCACGTGCTGGT,-0.08 kcal/mol
10,AGGTACACGTGGTACG,0.05 kcal/mol
11,GGGTACACGTGTGATA,0.26 kcal/mol
12,GACGGCACGTGGAGTG,-0.06 kcal/mol
13,TGTGGCACGTGTAATC,0.04 kcal/mol
14,GGTTCCACGTGTTTAT,0.19 kcal/mol
15,TTGGACACGTGAGTTG,0.28 kcal/mol
16,TTTCTCACGTGTAGGG,0.21 kcal/mol
17,AAGATCACGTGGTGCG,-0.06 kcal/mol
18,CGGGGCACGTGACGGA,0.05 kcal/mol
19,TGATTCACGTGGGGTT,0.28 kcal/mol
20,GGGTTCACGTGCGGTG,0.42 kcal/mol
21,TCTGACACGTGTTTGT,0.04 kcal/mol
22,TTAGGCACGTGATTAG,-0.05 kcal/mol
23,TTGTACACGTGGGTAC,0.02 kcal/mol
24,TTTGCCACGTGGATGG,-0.03 kcal/mol
25,TGTCGCACGTGGGACG,-0.14 kcal/mol
26,CTAGTCACGTGTATTT,0.01 kcal/mol

row,Sequence,relative binding free energy
1,AGTGACACGTGGGTCT,-0.23 kcal/mol
2,AGTGGCACGTGTGAAA,-0.06 kcal/mol
3,GTGACCACGTGGTGGT,-0.11 kcal/mol
4,TTTAGCACGTGGAGGG,-0.09 kcal/mol
5,ACAGACACGTGGTGGG,-0.11 kcal/mol
6,GGATGCACGTGGGTGG,-0.11 kcal/mol
7,TATGGCACGTGAGATA,0 kcal/mol
8,GAGGCCACGTGTGTGG,0.12 kcal/mol
9,TTAGGCACGTGTGTCC,0.05 kcal/mol
10,CGTTGCACGTGTTGGC,-0.04 kcal/mol
11,GTGATCACGTGTGTAA,0.23 kcal/mol
12,TCAGCCACGTGGTGTA,0.03 kcal/mol
13,GCGGGCACGTGTTGAG,0.04 kcal/mol
14,GATAGCACGTGATTAG,0.2 kcal/mol
15,GTGCCCACGTGTGGGT,0.01 kcal/mol
16,TTTTGCACGTGAGGTA,0.17 kcal/mol
17,TAGTGCACGTGATCGT,-0.03 kcal/mol
18,TGGTGCACGTGATGCG,0.06 kcal/mol
19,TGTTTCACGTGTCTAC,0.4 kcal/mol
20,ATAGTCACGTGAGCGT,0.25 kcal/mol
21,ATTTTCACGTGGGCTA,0.2 kcal/mol
22,GAAATCACGTGGGATG,0.11 kcal/mol
23,AGTGTCACGTGGCAGA,-0.01 kcal/mol
24,GTATACACGTGGTGTG,0 kcal/mol
25,TGCGACACGTGTGAGT,0.01 kcal/mol
26,ATCTTCACGTGGGTTA,0.01 kcal/mol

row,Sequence,relative binding free energy
1,TCATGCACGTGATGTA,0.07 kcal/mol
2,ATGTACACGTGTTCGT,0.01 kcal/mol
3,CAGTGCACGTGCGTGG,0 kcal/mol
4,GTTAGCACGTGATGCG,0.1 kcal/mol
5,TGGCACACGTGGTTGA,-0.01 kcal/mol
6,AGACTCACGTGGTTTG,0.11 kcal/mol
7,GGTCGCACGTGGATTT,0.13 kcal/mol
8,TTCTTCACGTGTTTAG,0.3 kcal/mol
9,TATCGCACGTGGCGTT,-0.12 kcal/mol
10,AGAGTCACGTGGGCTA,0.07 kcal/mol
11,ATAGTCACGTGACGTG,0.12 kcal/mol
12,AGGGTCACGTGGAAGT,0.2 kcal/mol
13,GAGAACACGTGGAGTG,-0.02 kcal/mol
14,TGTGACACGTGCGGAT,-0.1 kcal/mol
15,GTATTCACGTGAATAT,0.24 kcal/mol
16,AAGGGCACGTGCTTTA,-0.15 kcal/mol
17,GTGAGCACGTGGCGAG,-0.11 kcal/mol
18,GGTTTCACGTGGGTTC,0.35 kcal/mol
19,TTAAACACGTGGGCTT,0.02 kcal/mol
20,GCGTTCACGTGTTCGG,0.25 kcal/mol
21,ATGGTCACGTGGGTGC,0 kcal/mol
22,GAGATCACGTGTATTT,0.35 kcal/mol
23,CGGCTCACGTGGGGTT,-0.1 kcal/mol
24,GTTTGCACGTGGCTTA,0.1 kcal/mol
25,GGTGCCACGTGTGCGA,0.08 kcal/mol
26,TTCAGCACGTGTATGG,-0.02 kcal/mol

row,Sequence,relative binding free energy
1,TGAAGCACGTGCGAGT,-0.09 kcal/mol
2,CATGTCACGTGGGGAG,-0.09 kcal/mol
3,AGTTACACGTGGTAGG,0.11 kcal/mol
4,TAATGCACGTGGGTGA,-0.11 kcal/mol
5,GTATGCACGTGGAAAT,0.17 kcal/mol
6,TGGAACACGTGTTAGT,0.11 kcal/mol
7,ATGTGCACGTGTCGCT,-0.11 kcal/mol
8,GAGGACACGTGTTTGG,-0.07 kcal/mol
9,GGTTACACGTGCAGTG,0.03 kcal/mol
10,GACAGCACGTGTGGAT,0.24 kcal/mol
11,GGGTACACGTGGATTA,0.14 kcal/mol
12,ATGTGCACGTGCACGG,-0.09 kcal/mol
13,CTTTTCACGTGAGATG,0.41 kcal/mol
14,ATTAGCACGTGATAAG,0.09 kcal/mol
15,GAGGTCACGTGGGTCT,0.06 kcal/mol
16,AGGGGCACGTGAAGGC,0.09 kcal/mol
17,CGAGTCACGTGTAGTG,0.07 kcal/mol
18,TCGCGCACGTGTGGGG,-0.15 kcal/mol
19,GGTTTCACGTGTGCAT,0.32 kcal/mol
20,GTATTCACGTGTTTCT,0.2 kcal/mol
21,TTGTACACGTGTGGAC,0.06 kcal/mol
22,GTTTTCACGTGTAGTC,0.33 kcal/mol
23,GATTGCACGTGGTGTG,0.01 kcal/mol
24,CGCGACACGTGGGGGT,-0.12 kcal/mol
25,AGTGACACGTGCAGGG,-0.04 kcal/mol
26,ATAGGCACGTGGGGTC,-0.32 kcal/mol

row,Sequence,relative binding free energy
1,TGGGACACGTGGGCTG,-0.16 kcal/mol
2,TGTGGCACGTGGGCCT,-0.3 kcal/mol
3,GGAATCACGTGGGTTT,0.04 kcal/mol
4,GTGGGCACGTGTATGC,-0.06 kcal/mol
5,TATGCCACGTGGGATG,-0.24 kcal/mol
6,TAGTGCACGTGGCGAT,-0.05 kcal/mol
7,TATATCACGTGGGTAC,0.12 kcal/mol
8,CGTGTCACGTGGGGAA,-0.14 kcal/mol
9,ATTGGCACGTGATGCG,-0.01 kcal/mol
10,TATGACACGTGTAGTT,0.12 kcal/mol
11,TGAGGCACGTGTCAGA,-0.01 kcal/mol
12,GTGTGCACGTGTCGAT,0.02 kcal/mol
13,GTCCGCACGTGGTGTG,-0.16 kcal/mol
14,GTCATCACGTGGTTTT,0.15 kcal/mol
15,AGTAACACGTGAGGAT,0.1 kcal/mol
16,GTAAGCACGTGCTGTT,-0.02 kcal/mol
17,AGTCGCACGTGGAGTT,-0.06 kcal/mol
18,ATATGCACGTGCAGGG,-0.07 kcal/mol
19,AGGGGCACGTGCTATG,-0.28 kcal/mol
20,TTGAGCACGTGGATTA,-0.02 kcal/mol
21,TTGGACACGTGGGGGT,-0.04 kcal/mol
22,ATAGACACGTGGGTTA,-0.1 kcal/mol
23,ATGTGCACGTGATATG,-0.05 kcal/mol
24,GGTGCCACGTGGAGTG,-0.01 kcal/mol
25,ATGTCCACGTGTGGGA,0.05 kcal/mol
26,TTTATCACGTGAAGGT,0.27 kcal/mol

row,Sequence,relative binding free energy
1,CGAGGCACGTGTTATT,-0.13 kcal/mol
2,AACGTCACGTGAGGTG,0.3 kcal/mol
3,AAGGACACGTGGTTCG,0.04 kcal/mol
4,AATTTCACGTGTTGAT,0.13 kcal/mol
5,GAGTTCACGTGCGGGC,0.3 kcal/mol
6,TAAATCACGTGTGTAA,0.17 kcal/mol
7,CGGGGCACGTGTCGTA,-0.1 kcal/mol
8,GTACACACGTGGTGAG,0.13 kcal/mol
9,TACTGCACGTGGAGGG,-0.01 kcal/mol
10,AGAGTCACGTGCGGAG,0.15 kcal/mol
11,TATTACACGTGAGTGA,0.38 kcal/mol
12,TAGGACACGTGAGGCG,0.27 kcal/mol
13,AATTTCACGTGTCGGT,0.28 kcal/mol
14,ATAGGCACGTGGTAAA,-0.13 kcal/mol
15,TTGGACACGTGGGTTT,0 kcal/mol
16,GTGTGCACGTGAGTCA,0.25 kcal/mol
17,GCGGACACGTGGTGTG,0 kcal/mol
18,AGGTACACGTGCAGTG,0.08 kcal/mol
19,GTAGGCACGTGAGATG,0.1 kcal/mol
20,AGCGGCACGTGTTGTG,-0.19 kcal/mol
21,GTGTTCACGTGGTTTT,0.24 kcal/mol
22,GTGGTCACGTGCTGAT,0.15 kcal/mol
23,CTAAGCACGTGGGTGT,-0.37 kcal/mol
24,CTGATCACGTGTTTTT,0.14 kcal/mol
25,TTGGGCACGTGACTCG,0.06 kcal/mol
26,TTAATCACGTGGGACG,0.07 kcal/mol

row,Sequence,relative binding free energy
1,AGTTACACGTGGAGCT,0.12 kcal/mol
2,TCGGGCACGTGGATAG,-0.05 kcal/mol
3,CAAGTCACGTGTGTAG,0.04 kcal/mol
4,GGTAGCACGTGTACGT,0.12 kcal/mol
5,CAAGACACGTGAGGGG,0.35 kcal/mol
6,GGAATCACGTGTTCGG,0.15 kcal/mol
7,TTTAACACGTGTAGTC,0.19 kcal/mol
8,GGGGACACGTGAGGTC,0.23 kcal/mol
9,GGCATCACGTGTAAGG,0.14 kcal/mol
10,TGAAGCACGTGAGGGC,0.19 kcal/mol
11,AGTAGCACGTGATGGC,-0.13 kcal/mol
12,TTTTACACGTGTGTTC,0.13 kcal/mol
13,TGTGACACGTGTTAGC,0 kcal/mol
14,CCGTTCACGTGTGGGG,0.2 kcal/mol
15,GCGGACACGTGTTTTG,0.16 kcal/mol
16,TAGCGCACGTGGGCTG,-0.35 kcal/mol
17,ATGATCACGTGGAGCG,0.09 kcal/mol
18,TTGGTCACGTGCCGTG,0.04 kcal/mol
19,GAGAGCACGTGGGGCG,-0.27 kcal/mol
20,GACGGCACGTGAGGAG,0.17 kcal/mol
21,TTGGGCACGTGGCGCG,-0.21 kcal/mol
22,CTGGGCACGTGCTGCG,-0.09 kcal/mol
23,TTGATCACGTGAAGGC,0.39 kcal/mol
24,TTGATCACGTGACTGG,0.3 kcal/mol
25,GGGGGCACGTGCGTAA,-0.18 kcal/mol
26,GTGGGCACGTGAGAAA,0.1 kcal/mol

row,Sequence,relative binding free energy
1,ATTCGCACGTGGGTTC,-0.08 kcal/mol
2,TATACCACGTGGTTAG,-0.11 kcal/mol
3,AGATGCACGTGGGTTA,-0.18 kcal/mol
4,CTTAGCACGTGGGGAG,-0.12 kcal/mol
5,AGGGACACGTGTTGGT,-0.12 kcal/mol
6,ACGGGCACGTGTGGCA,-0.03 kcal/mol
7,AGATACACGTGGGGTA,-0.16 kcal/mol
8,GTTGTCACGTGGGAGC,-0.08 kcal/mol
9,GCTTCCACGTGGGGTT,-0.03 kcal/mol
10,GTCGTCACGTGTGCGA,0.21 kcal/mol
11,TGTTACACGTGAAGTT,0.43 kcal/mol
12,TTGCGCACGTGGGGCC,-0.08 kcal/mol
13,GGGAGCACGTGTGGGT,-0.09 kcal/mol
14,GGTCACACGTGGGTCG,-0.05 kcal/mol
15,TTTATCACGTGTGGTC,0.23 kcal/mol
16,GTTTTCACGTGTTAGT,0.3 kcal/mol
17,TGTGACACGTGTTTTA,-0.03 kcal/mol
18,CTTCTCACGTGTTGTT,0.08 kcal/mol
19,AGGCTCACGTGGTTGA,0.23 kcal/mol
20,GGCCACACGTGTGTGG,0.11 kcal/mol
21,GAGGGCACGTGATTGT,0.01 kcal/mol
22,GTACACACGTGTTTTT,0.07 kcal/mol
